Laboratory results as given in PubChem BioAssay AID485367 (National Center for Advancing Translational Sciences (NCATS), 2010).
Screen size: about 330,000 compounds; about 560 (0.17%) were called active. This list was built around the results that the source calls inconclusive (neither active nor inactive); the mix of calls is not that of the screen. Calls come from the whole dose curve; as a rule, active = well fitted inhibition curve with a large enough effect; inconclusive = small, poorly fitted or top-dose-only effect, or effect the other way; inactive = flat fitted curve, though single readings scatter. No potency is given beside an inconclusive call; the fits are too rough.

Target: ATP-dependent 6-phosphofructokinase (Trypanosoma brucei brucei) (UniProt O15648)
Experiment: qHTS Assay to Find Inhibitors of T. brucei phosphofructokinase; note: nearly all actives have a fitted effect of over 60% in size;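 for activity, negative = inhibition: 0% = uninhibited 1x PFK enzyme wells and -100% = no-enzyme wells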
Details: T. brucei PFK, ADP-Glo luminescence; activity, negative = inhibition: at 57.5 µM (top of the series)
In short: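 In TEA buffer at pH 8.0 with 5 mM MgCl2, enzyme (1.25 nM) converted F6P (0.5 mM) and ATP (0.1 mM) for 45 min at room temperature. ADP product was read by luciferase luminescence.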
Potency is the fitted concentration of half-maximal effect; tags give direction and shape of the fitted curve.

Chain of UniProt O15648 (O15648 whole entry, looked up): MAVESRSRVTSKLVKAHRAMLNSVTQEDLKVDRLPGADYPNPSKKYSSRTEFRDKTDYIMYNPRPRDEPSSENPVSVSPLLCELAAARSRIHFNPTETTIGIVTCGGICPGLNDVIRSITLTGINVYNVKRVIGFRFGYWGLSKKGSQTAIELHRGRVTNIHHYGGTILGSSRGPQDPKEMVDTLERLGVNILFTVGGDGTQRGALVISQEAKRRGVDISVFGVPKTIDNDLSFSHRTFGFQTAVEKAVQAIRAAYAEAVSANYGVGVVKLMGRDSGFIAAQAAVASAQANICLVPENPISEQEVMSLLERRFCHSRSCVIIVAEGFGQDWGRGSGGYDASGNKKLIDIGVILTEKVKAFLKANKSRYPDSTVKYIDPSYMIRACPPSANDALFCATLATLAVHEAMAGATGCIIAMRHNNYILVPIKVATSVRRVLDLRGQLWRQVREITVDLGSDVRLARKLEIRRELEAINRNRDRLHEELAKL

| SMILES | activity, negative = inhibition | Potency |
| --- | --- | --- |
| CCN(CC)S(=O)(=O)c1ccc(OC)c(NC(=O)C(C)Oc2ccc3c(C)cc(=O)oc3c2)c1 (configuration not stated) | inactive: -0.218% | – |
| CC(c1ccco1)N(C(=O)c1cc(Cl)cc(Cl)c1)c1ccccn1 (configuration not stated) | inactive: -2.19% | – |
| COC(=O)c1ccc(COc2ccccc2/C=C/C(=O)c2ccc(OCC(=O)O)cc2)cc1 | – | inconclusive [falling, single point] |
| Cc1cc(N2C(=O)C3C4C=CC(C4)C3C2=O)ccc1NC(=O)c1cccs1 (configuration not stated) | – | inconclusive [falling, single point] |
| Clc1nssc1=Nc1nncs1 | – | active: 4.26 µM |
| CCCCCC(=O)Nc1cccc(C2=NOC3(C2)C[C@H](C(N)=O)N(C(=O)CC#N)C3)c1 (some centres not stated) | – | inconclusive [falling, single point] |
| COc1ccc(CNC(=O)c2ccc3ccccc3n2)cc1OC | inactive: 1.33% | – |
| Cc1ccsc1/C=N/NC(=O)c1ccc2ccccc2c1 | – | inconclusive [falling, single point] |
| Cc1cc(/C=C2/C(=N)N3C(=NC2=O)SN=C3S(C)(=O)=O)c(C)n1-c1ccc(F)cc1 | inactive: 1.44% | – |
| O=C(NCc1ccc(Cl)cc1)c1ccc(CNc2c(N3CCOCC3)c(=O)c2=O)cc1 | – | inconclusive [falling, single point] |
| O=C(CSc1nnc(Cc2ccc(Cl)cc2)o1)Nc1ccccc1 | – | inconclusive [falling, partial curve] |
| COc1ccc(/C=N/NC(=O)CCn2cnc(-c3ccccc3)c2-c2ccccc2)cc1 | inactive: -0.101% | – |
| COC(=O)c1nc(NC(=S)NC(=O)c2cccs2)sc1C | inactive: -0.222% | – |
| C=COCCNC(=O)Nc1ccc(Cl)c(Cl)c1 | – | active: 15.1 µM |
| Brc1ccc(CN2C3=NCCCN3c3ccccc32)cc1 | – | inconclusive [falling, partial curve] |
| O=C(NCc1ccccn1)c1cc(-n2cnnc2)ccc1Cl | – | inconclusive [falling, partial curve] |
| COc1cccc(CN(C)CC(=O)NC(=O)NCc2ccco2)c1 | – | inconclusive [falling, single point] |
| Cc1cc(C)cc(OCC(=O)Nc2ccc(N3CCCC3)cc2)c1 | – | inconclusive [activator, single point] |
| CC(=O)Cn1cnc2c(sc3nc(C)cc(C)c32)c1=O | inactive: 0.168% | – |
| O=C(CCCN1C(=O)/C(=C/c2cccs2)SC1=S)NNC(=O)c1cccnc1 | – | inconclusive [activator, single point] |
| C=CCNc1oc(-c2ccc(-c3ccccc3)cc2)nc1C#N | inactive: -3.28% | – |
| CNC(=O)NC(=O)C(C)OC(=O)c1c2c(nc3ccccc13)/C(=C/c1cccs1)CC2 (configuration not stated) | inactive: -0.208% | – |
| O=C(CCN1CCC(c2ccccc2)C1)c1ccc2c(c1)OCCO2 (configuration not stated) | – | inconclusive [falling, single point] |
| O=C(Nc1cccc(NC(=O)N2CCN(c3ccccc3)CC2)c1)N1CCN(c2ccccc2)CC1 | – | inconclusive [falling, single point] |

| SMILES | activity, negative = inhibition | Potency |
| --- | --- | --- |
| CCN1CCc2c(sc(NC(=S)NC(=O)c3ccccc3)c2C#N)C1 | inactive: -29.6% | – |
| CCOc1ccccc1NC(=O)COC(=O)CN(C)S(=O)(=O)c1ccc(C)cc1 | – | inconclusive [falling, single point] |
| Fc1cccc(NCc2cn3ccccc3n2)c1 | – | active: 12 µM |
| O=C1C2C3C=CC(CO)(O3)C2C(=O)N1c1ccc(-c2ccccc2)cc1 (configuration not stated) | – | inconclusive [falling, single point] |
| O=C(NCC12CC3CC(CC(C3)C1)C2)c1cc2n(n1)C(C(F)(F)F)CC(c1ccco1)N2 (configuration not stated) | – | inconclusive [falling, single point] |
| Cc1ccc[n+](-c2[nH]c(=O)sc2/C=N/NC(=O)c2ccccc2[O-])c1 | – | inconclusive [falling, single point] |
| Cc1ccc(S(=O)(=O)NC2c3cccc4cccc(c34)C2Sc2ncccn2)cc1 (configuration not stated) | – | inconclusive [falling, single point] |
| CC(COc1ccccc1)NC(C)C(O)c1ccc(O)cc1 (configuration not stated) | – | inconclusive [falling, single point] |
| CC(C)CC(=O)NC(NC(=S)Nc1sc2c(c1C#N)CCCC2)C(Cl)(Cl)Cl (configuration not stated) | inactive: -14.4% | – |
| O=C(CCCc1ccccc1)Nc1cccc([N+](=O)[O-])c1 | inactive: -2.9% | – |
| O=C1CCC/C(=N/NC(=O)c2cc(NS(=O)(=O)c3cccs3)cc(NS(=O)(=O)c3cccs3)c2)C1 | – | inconclusive [falling, partial curve] |
| CC(=O)N1CCCN(C(=O)c2ccc3nc(Cc4cccc(Cl)c4)oc3c2)CC1 | – | inconclusive [falling, single point] |
| CCc1ccc(N=c2c([N+](=O)[O-])nn(-c3ccccc3)n2O)cc1 | – | inconclusive [falling, single point] |
| O=C(Cc1ccc(Cl)cc1Cl)Nc1ccncc1 | – | inconclusive [falling, partial curve] |
| CC(C)(C)c1cc(C(=S)N2CCN(CCO)CC2)cc(C(C)(C)C)c1O | – | active: 30.1 µM |
| O=C(NCCc1ccccc1)c1ccc2nc(-c3ccco3)c(-c3ccco3)nc2c1 | – | inconclusive [falling, partial curve] |
| O=C(CN1CCCC1)Nc1cccc(Cl)c1 | – | inconclusive [falling, single point] |
| O=C(OCc1ccc(Cl)c(Cl)c1)c1cccnc1Cl | – | inconclusive [falling, partial curve] |
| O=[N+]([O-])c1ccc(N2CCN(c3ccccc3Cl)CC2)cn1 | inactive: 4.84% | – |
| N#Cc1nc(-c2cccc3ccccc23)oc1NCC#CCOC(=O)c1cccs1 | – | active: 21.3 µM |
| COc1cc(C(=O)NCc2cccc(Cl)c2)ccc1OCC(=O)N1CCOCC1 | – | inconclusive [activator, single point] |
| O=C(Nc1ccccc1)Nc1cccc2nsnc12 | – | inconclusive [falling, single point] |
| COc1ccc(/C=C/C(=O)NCc2ccc(F)cc2)cc1S(=O)(=O)N1CCOCC1 | – | inconclusive [falling, partial curve] |
